Reference: PubChem BioAssay AID686978 (National Center for Advancing Translational Sciences (NCATS), 2013)
The whole screen tested about 420,000 compounds, of which about 64,000 (15%) were called active. The inconclusive results got no clear call from the source; some entries with a clear call stand among them for comparison. Calls come from the whole dose curve; as a rule, active = well fitted inhibition curve with a large enough effect; inconclusive = small, poorly fitted or top-dose-only effect; inactive = flat fitted curve, though single readings scatter. Potencies of inconclusive entries are left out as doubtful fits.

Test: qHTS for Inhibitors of human tyrosyl-DNA phosphodiesterase 1 (TDP1): qHTS in cells in absence of CPT; note: nearly all actives have a fitted effect of over 55% in size
Conditions: DT40 Tdp1-/- hTDP1 cells, no CPT, ATP luminescence, 48 h; activity change, negative = growth inhibition: at 46.2 µM (top of the series) unless noted
Method in brief: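 Growth of hTDP1-complemented DT40 Tdp1-knockout cells is measured by ATP luminescence after at least 48 hr compound exposure at 37 °C, with DMSO substituting for the 20 nM CPT used in the parallel screen.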
% is set by controls: 0 for no effect and ±100 for the full control effect; potency is the fitted concentration of half-maximal effect; tags give direction and shape of the fitted curve.

Structure (SMILES) | Potency | activity change, negative = growth inhibition
O=C(CCS(=O)(=O)c1ccccc1)Nc1nccs1 | inconclusive [inhibitor, partial curve, poor fit] | 
CCCC/C=C/C(NC(=O)c1ccc(C(=O)OC)cc1)c1ccccc1 (stereo not drawn) | inconclusive [inhibitor, single point] | 
COc1ccc(C2C(CC(=O)O)=C(O)C(=O)N2c2ccccc2)cc1 (stereo not drawn) |  | inactive: -5.19%
Cc1ccc2c(c1)/C(=C/c1ccc(F)cc1)C(=O)N2 | active: 20.6 µM | 
O=C(NC1CCCCCCC1)c1ccc2c(c1)OCO2 | inconclusive [inhibitor, partial curve, poor fit] | 
CN(C)CCCNS(=O)(=O)c1cc(Cl)c(Cl)cc1Cl | inconclusive [inhibitor, partial curve] | 
CN(C(=S)Nc1ccc(F)cc1)C1(c2ccccc2Cl)CCCCC1=O (stereo not drawn) | inconclusive [inhibitor, partial curve] | 
O=C(Oc1ccc(/C=N/n2cnnc2)cc1)c1cccc([N+](=O)[O-])c1 | inconclusive [inhibitor, partial curve] | 
COc1ccc(N2CC(C(=O)NCCc3ccc(Cl)cc3)CC2=O)cc1 (stereo not drawn) |  | inactive: -20.9%
COc1cc(CNC(C)(C)C)cc(Br)c1OCc1cccs1 | active: 14.6 µM | 
O=C(NC1CCCCC1)Oc1cccc2ccccc12 | inconclusive [inhibitor, single point] | 
Cc1cccc(NS(=O)(=O)c2cccc(C(=O)NCC(c3ccc(F)cc3)N3CCOCC3)c2)c1 (stereo not drawn) | inconclusive [inhibitor, single point] | 
C[C@H](NC(CCc1ccccc1)C(=O)O)C(=O)N1CCC[C@H]1C(=O)O (stereo partly drawn) |  | inactive: 0.924%
N=c1c(C(=O)NC2CCCCC2)cc2c(=O)n3ccccc3nc2n1CCc1ccccc1 | active: 20.6 µM | 
Cc1cc(C)n2nc(C)c(-c3ccccc3)c2n1 | inconclusive [inhibitor, single point] | 
COCCN1C(=O)N[C@@H](c2ccco2)C(C(=O)OC)=C1C |  | inactive: 2.47%
COc1ccc(C2Nc3ccccc3C(=O)N2c2ccc(Cl)cc2)cc1COc1ccc(NC(C)=O)cc1 (stereo not drawn) | active: 14.1 µM | 
COc1ccc(NC(=O)C(=O)NCC2(c3ccccc3)CCCC2)c(OC)c1 | inconclusive [inhibitor, single point] | 
O=C(CSc1nnc(-c2ccc(Br)cc2)n1-c1ccccc1)c1ccccc1 | active: 4.11 µM | 
CNC(=O)CSc1nnc(NC(=O)Nc2ccccc2)s1 | inconclusive [inhibitor, single point] | 
O=C(Cn1c(NCCO)nc2ccccc21)Nc1cccc(S(=O)(=O)N2CCCC2)c1 | active: 10.3 µM | 
Cc1ccc(N(CC(C)C)S(=O)(=O)c2nnc(NC(=O)c3cccs3)s2)cc1 | active: 23.1 µM | 
O=C(NC(=S)Nc1ccc(-c2ccccc2)cc1)c1ccccc1 | inconclusive [inhibitor, single point] | 
Cc1cc(NC(=O)CSc2nc(CCC3CCCC3)nc3ccccc23)no1 | inconclusive [inhibitor, single point] | 
O=C1CCCC2=C1C(c1ccsc1)CC(=O)N2c1ccccc1F (stereo not drawn) |  | inactive: -9.1%

Structure (SMILES) | Potency | activity change, negative = growth inhibition
O=C(c1ccc(F)c(S(=O)(=O)N2CCOCC2)c1)N(CCc1ccccc1)Cc1ccccc1 | inconclusive [inhibitor, single point] | 
CCOC(=O)c1ccc(-n2c(CN3CCOCC3)nc3ccc([N+](=O)[O-])cc3c2=O)cc1 |  | inactive: -3.76%
COc1cccc(-c2cc(NCc3ccccc3)ncn2)c1 | inconclusive [inhibitor, single point] | 
COc1ccc(N2CCN(c3cc(=O)n(Cc4ccc(F)cc4)c(=O)[nH]3)CC2)cc1 | inconclusive [inhibitor, single point] | 
c1ccc2c(C3=NNC(=NC4CCCCC4)SC3)c[nH]c2c1 | inconclusive [inhibitor, single point] | 
CN(C(=O)c1cccc(OC2CCN(S(=O)(=O)N(C)C)CC2)c1)C1CCOC1 (stereo not drawn) |  | inactive: 25.1%
COCC(=O)n1nc(-c2ccc(C)cc2)nc1NCc1ccc(F)cc1 | inconclusive [inhibitor, single point] | 
Cc1nc(-c2ccc(Cl)cc2)sc1C1(C)CC(c2c(Cl)cccc2Cl)=NO1 (stereo not drawn) | inconclusive [inhibitor, single point] | 
COc1ccc(C(=O)NCC(c2ccc3c(c2)OCO3)N2CCN(c3ccc(F)cc3)CC2)cc1 (stereo not drawn) | active: 1.64 µM | 
CN1CCN(S(=O)(=O)c2ccc(N3CCN(c4ccccc4O)CC3)c([N+](=O)[O-])c2)CC1 | inconclusive [inhibitor, single point] | 
CCn1c(=O)cc(SCC(=O)N2CCCCC2)c2ccccc21 | inconclusive [inhibitor, single point] | 
CC(=O)c1ccc(NC(=O)CSc2cn[nH]n2)cc1 |  | inactive: -9.47%
COc1ccc(N/C=C/C(=O)c2cc(OC)c(OC)c(OC)c2)cc1 | active: 1.03 µM | 
O=C(CN1CCN(c2ccc(Cl)cc2)CC1)c1ccccc1 | inconclusive [inhibitor, partial curve] | 
CCOCN(C(=O)Cn1cnc2cc(C)c(C)cc21)c1c(C)cccc1CC | active: 16.4 µM | 
CN(C)c1cccc(C(=O)NC2CCCc3ccccc32)c1 (stereo not drawn) | inconclusive [inhibitor, single point] | 
NC(=O)c1ccsc1NC(=O)c1cc(=O)c2ccccc2o1 |  | inactive: -24%
COc1cccc(CNC(=O)CCCSc2ccccc2)c1 |  | inactive: -2.88%
CC(C)OC(=O)N(C)C[C@H]1OCc2cnnn2CCCC(=O)N([C@H](C)CO)C[C@@H]1C |  | inactive: -20.1%
CCOC(=O)C1CCN(C(=O)c2ccccc2NS(=O)(=O)c2ccccc2)CC1 |  | inactive: -2.42%
O=C(Nc1nnc([C@H]2C[C@H](O)[C@@H](CO)O2)s1)c1cccc(C(F)(F)F)c1 |  | inactive: -2.85%
COc1ccc(S(=O)(=O)N2CCOCC2)cc1NC(=O)COC(=O)C1CC1C (stereo not drawn) |  | inactive: -3.66%
Cc1ccc(C(=O)NNC(=O)COc2ccc(Cl)cc2C)o1 |  | inconclusive: -33.5% [inhibitor]
COc1ccc(-c2cn3nc(N4CCC(C(=O)Nc5ccc(C)cc5)CC4)sc3n2)cc1 | active: 20.6 µM | 
O=C(CNC(=S)N(Cc1ccccc1)Cc1cccnc1)NCCc1ccccc1 | inconclusive [inhibitor, partial curve] | 

Structure (SMILES) | Potency | activity change, negative = growth inhibition
Cc1ccc(NC(=O)Cc2nc(-c3c[nH]c(C(=O)N4CCCC4)c3)cs2)c(C)c1 | inconclusive [inhibitor, single point] | 
C=CCn1c(N)c(C(=O)Nc2ccc(C)c(C)c2)c2nc3ccccc3nc21 | inconclusive [inhibitor, single point] | 
CCOc1ccc(N(C)S(=O)(=O)c2cc(-c3cc(C)no3)ccc2C)cc1 | inconclusive [inhibitor, single point] | 
CNCC(O)CN(c1ccccc1)c1ccccc1 (stereo not drawn) | inconclusive [inhibitor, single point] | 
Cc1ccc(C)c(-c2nc3ccc(N)cc3[nH]2)c1 | active: 14.6 µM | 
CC1CCCCN1C(=O)CSc1nnc(-c2ccccc2Cl)o1 (stereo not drawn) | inconclusive [inhibitor, single point] | 
CCOc1ccc(N(CC)S(=O)(=O)N2CCCC(C(=O)NCCc3ccccc3OC)C2)cc1 (stereo not drawn) | inconclusive [inhibitor, single point] | 
CCc1c(C)nc(N2CCN(Cc3ccccc3)CC2)[nH]c1=O | inconclusive [inhibitor, single point] | 
COc1ccccc1N1CCN(S(=O)(=O)CCNC(=O)C23CC4CC(CC(C4)C2)C3)CC1 | inconclusive [inhibitor, single point] | 
CN(C)/C=C(\C#N)C(=O)Nc1ccc(F)c(Cl)c1 | inconclusive [inhibitor, partial curve] | 
COC(=O)CCC(C)C1CCC2C3CCC4CC(O)CCC4(C)C3CC(O)C12C (stereo not drawn) | active: 20.6 µM | 
COc1cc2ccccc2cc1C(=O)Nc1cccnc1 | inconclusive [inhibitor, single point] | 
CCN(CC)c1ccc(NC(=O)C2CCCC2)cc1 | inconclusive [inhibitor, single point] | 
O=C(Nc1ccc(C(=O)N2CCN(c3ccc(Cl)cc3)CC2)cc1)c1nsc2ccccc12 | inconclusive [inhibitor, single point] | 
CCCc1cc(=O)oc2cc(C)c(CN3CCCC3)c(O)c12 | active: 16.4 µM | 
COc1ccc2c(c1OC)C(=O)OC2Nc1ccccn1 (stereo not drawn) |  | inactive: -1.61%
CCOC(=O)/C=C/c1cccc(C)c1O | inconclusive [inhibitor, single point] | 
CC1(O)C(c2ccccc2)=Nc2ccccc21 (stereo not drawn) | inconclusive [inhibitor, single point] | 
COc1ccc(N2C3=C(CC4=C2CCCC4=O)C(=O)CCC3)cc1 | inconclusive [inhibitor, single point] | 
CCN(CC(=O)Nc1ccccc1OC)C(=O)CN1C(=O)NC(C)(c2ccccc2)C1=O (stereo not drawn) |  | inactive: 1.62%
COc1ccc(Br)cc1CNC(=O)C1COc2ccccc2C1 (stereo not drawn) |  | inactive: -29.1%
COc1cc(N/N=C/c2ccc(N(C)C)cc2)ncn1 | inconclusive [inhibitor, single point] | 
Cc1ccc(C(=O)CC(=O)c2cccc(F)c2)c(O)c1 | active: 6.51 µM | 
